Counter-ions that a name gives are not always drawn. Among all 1,500 compounds or so, about 30 (2%) showed activity.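 Rule for the calls: active = robust z-score below -2; a few such results were not called.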 Some of the results follow.
What follows are molecules tested on optoTopBP1 Flp-In 293 T-REx (HEK293) cells (assay: light-induced TopBP1 condensate (nuclear foci) count, plate-normalised robust z-score vs non-control wells; higher = more TopBP1 condensates (negative = condensation inhibitor), active = hit call of the paper). Details: 10 µM; incubation time 2 h.
In the case of `O=C(O)CCCC[C@@H]1SC[C@@H]2NC(=O)N[C@@H]21` [Biotin], the “light-induced TopBP1 condensate (z-score)” value is reported as inactive: 0.446. For `COCC(=O)Nc1c(I)c(C(=O)NCC(O)CO)c(I)c(C(=O)N(C)CC(O)CO)c1I` (stereo not given) [Iopromide], the “light-induced TopBP1 condensate (z-score)” value was inactive: -0.299. For `CCOC(=O)Nc1ccc(NCc2ccc(F)cc2)nc1N` [Flupirtine], the “light-induced TopBP1 condensate (z-score)” value was inactive: 0.863. In the case of `CC1COc2c(N3CCN(C)CC3)c(F)cc3c(=O)c(C(=O)O)cn1c23` (stereo not given) [Ofloxacin], the “light-induced TopBP1 condensate (z-score)” value is reported as inactive: 0.0516. In the case of `CC(C)=CCC1C(=O)N(c2ccccc2)N(c2ccccc2)C1=O` [Feprazone], the “light-induced TopBP1 condensate (z-score)” value is reported as inactive: 1.11. `C[C@H](CCC(=O)O)[C@H]1CC[C@H]2[C@@H]3CC[C@@H]4C[C@H](O)CC[C@]4(C)[C@H]3CC[C@]12C` [Lithocholic acid] was tested, and the “light-induced TopBP1 condensate (z-score)” value was inactive: -0.199. With `N[C@@H](CSCCCO)C(=O)O` [Fudosteine] the “light-induced TopBP1 condensate (z-score)” value was inactive: 0.24. In the case of `CC(=O)SCC(Cc1ccccc1)C(=O)NCC(=O)OCc1ccccc1` (stereo not given) [Racecadotril], the “light-induced TopBP1 condensate (z-score)” value is reported as inactive: -1.22. For `COC(=O)C1=C(C)NC(C)=C(C(=O)OC(C)C)C1c1cccc2nonc12` (stereo not given) [Isradipine], the “light-induced TopBP1 condensate (z-score)” value was inactive: 1.1. In the case of `O=C(Oc1cccc2cccnc12)c1ccccc1` [Benzoxiquine], the “light-induced TopBP1 condensate (z-score)” value is reported as inactive: -0.428. `CN1CCC(OC(c2ccccc2)c2ccccc2)CC1` [Diphenylpyraline hydrochloride] was tested, and the “light-induced TopBP1 condensate (z-score)” value was inactive: -0.243. In the case of `Clc1ccc(Nc2nnc(Cc3ccncc3)c3ccccc23)cc1` [Vatalanib], the “light-induced TopBP1 condensate (z-score)” value is reported as inactive: 0.814. With `O=c1[nH]cnc2c1ncn2[C@H]1CC[C@@H](CO)O1` [Didanosine] the “light-induced TopBP1 condensate (z-score)” value was inactive: 0.3. `CN(C/C=C/C#CC(C)(C)C)Cc1cccc2ccccc12` [Terbinafine] was tested, and the “light-induced TopBP1 condensate (z-score)” value was inactive: -1.01. For `Fc1ccc([C@@H]2CCNC[C@H]2COc2ccc3c(c2)OCO3)cc1` [Paroxetine Hydrochloride], the “light-induced TopBP1 condensate (z-score)” value was inactive: -1.43. `Nc1nc(O)c2ncn(CCC(CO)CO)c2n1` [Penciclovir] was tested, and the “light-induced TopBP1 condensate (z-score)” value was inactive: -1.4. `C[C@H]1COc2c(N3CCN(C)CC3)c(F)cc3c(=O)c(C(=O)O)cn1c23` [Levofloxacin] was tested, and the “light-induced TopBP1 condensate (z-score)” value was inactive: 0.119. In the case of `NC(CO)C(=O)NNCc1ccc(O)c(O)c1O` (stereo not given) [Benserazide hydrochloride], the “light-induced TopBP1 condensate (z-score)” value is reported as inactive: -0.896. With `CCCC(=O)OCOC(=O)C1=C(C)NC(C)=C(C(=O)OC)C1c1cccc(Cl)c1Cl` (stereo not given) [Clevidipine] the “light-induced TopBP1 condensate (z-score)” value was inactive: 1.42. In the case of `NCCC[C@H](N)CC(=O)N[C@H]1CNC(=O)[C@H]([C@H]2C[C@H](O)NC(N)=N2)NC(=O)/C(=C/NC(N)=O)NC(=O)[C@H](CO)NC(=O)[C@H](CO)NC1=O` [Viomycin sulfate], the “light-induced TopBP1 condensate (z-score)” value is reported as inactive: -0.169.
